# Measured values reported in the supplement of paper PMC8728848.
# Some of the results follow.
# Tests used:
# Experiment in all cases: glycan array binding signal (z-score within array); higher = stronger binding
# Settings in all cases: glycan notation: IUPAC condensed, linker removed
# Fuc(a1-3)GlcNAc = molecular target: Fuc(a1-3)GlcNAc
# Procedure, shortened: (§1)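 Columns mapping to the same glycan were averaged after glycan names were converted to IUPAC-condensed notation. The data come from 3228 arrays in the Consortium for Functional Glycomics database, limited to those with an available protein sequence. Binding is reported as a within-array Z-score averaged across arrays of one protein sequence and across linkers.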
# [1] = molecular target: Fuc(a1-3)[Gal(b1-4)]Glc6S
# Procedure, shortened: as §1
# [2] = molecular target: Fuc(a1-3)[Gal(b1-4)]GlcNAc
# Procedure, shortened: as §1
# [3] = molecular target: Fuc(a1-3)[Gal(b1-4)]GlcNAc(b1-2)Man
# Procedure, shortened: as §1
# [4] = molecular target: Fuc(a1-3)[Gal(b1-4)]GlcNAc(b1-2)Man(a1-3)[Fuc(a1-3)[Gal(b1-4)]GlcNAc(b1-2)Man(a1-6)]Man(b1-4)GlcNAc(b1-4)GlcNAc
# Procedure, shortened: as §1
# [5] = molecular target: Fuc(a1-3)[Gal(b1-4)]GlcNAc(b1-2)Man(a1-3)[Fuc(a1-3)[Gal(b1-4)]GlcNAc(b1-2)Man(a1-6)]Man(b1-4)GlcNAc(b1-4)[Fuc(a1-6)]GlcNAc
# Procedure, shortened: as §1
# [6] = molecular target: Fuc(a1-3)[Gal(b1-4)]GlcNAc(b1-3)Gal(b1-3)[Fuc(a1-4)]GlcNAc
# Procedure, shortened: as §1
# [7] = molecular target: Fuc(a1-3)[Gal(b1-4)]GlcNAc(b1-3)Gal(b1-4)[Fuc(a1-3)]GlcNAc
# Procedure, shortened: as §1
# [8] = molecular target: Fuc(a1-3)[Gal(b1-4)]GlcNAc(b1-3)Gal(b1-4)[Fuc(a1-3)]GlcNAc(b1-3)Gal(b1-4)[Fuc(a1-3)]GlcNAc
# Procedure, shortened: as §1
# [9] = molecular target: Fuc(a1-3)[Gal(b1-4)]GlcNAc(b1-3)GalNAc
# Procedure, shortened: as §1
# [10] = molecular target: Fuc(a1-3)[Gal(b1-4)]GlcNAc(b1-6)GalNAc
# Procedure, shortened: as §1
# [11] = molecular target: Fuc(a1-3)[Gal(b1-4)]GlcNAc(b1-6)[Gal(b1-3)GlcNAc(b1-3)]Gal(b1-4)Glc
# Procedure, shortened: as §1
# [12] = molecular target: Fuc(a1-3)[Gal(b1-4)]GlcNAc6S
# Procedure, shortened: as §1
# [13] = molecular target: Fuc(a1-3)[Gal3S(b1-4)]Glc
# Procedure, shortened: as §1
# [14] = molecular target: Fuc(a1-3)[Gal3S(b1-4)]GlcNAc
# Procedure, shortened: as §1
# [15] = molecular target: Fuc(a1-3)[Gal3S(b1-4)]GlcNAc6S
# Procedure, shortened: as §1
# [16] = molecular target: Fuc(a1-3)[GalNAc(b1-4)]GlcNAc
# Procedure, shortened: as §1
# [17] = molecular target: Fuc(a1-3)[GalNAc(b1-4)]GlcNAc6S
# Procedure, shortened: as §1
# Fuc(a1-4)GlcNAc = molecular target: Fuc(a1-4)GlcNAc
# Procedure, shortened: as §1
# Fuc(b1-3)GlcNAc = molecular target: Fuc(b1-3)GlcNAc
# Procedure, shortened: as §1
# Gal(a1-2)Gal = molecular target: Gal(a1-2)Gal
# Procedure, shortened: as §1
# Gal(a1-3)Gal = molecular target: Gal(a1-3)Gal
# Procedure, shortened: as §1
# Gal(a1-3)Gal(b1-3)GlcNAc = molecular target: Gal(a1-3)Gal(b1-3)GlcNAc
# Procedure, shortened: as §1
# [18] = molecular target: Gal(a1-3)Gal(b1-3)GlcNAc(b1-2)Man
# Procedure, shortened: as §1
# [19] = molecular target: Gal(a1-3)Gal(b1-3)GlcNAc(b1-2)Man(a1-3)[Gal(a1-3)Gal(b1-3)GlcNAc(b1-2)Man(a1-6)]Man(b1-4)GlcNAc(b1-4)GlcNAc
# Procedure, shortened: as §1
# [20] = molecular target: Gal(a1-3)Gal(b1-3)GlcNAc(b1-3)GalNAc
# Procedure, shortened: as §1
# [21] = molecular target: Gal(a1-3)Gal(b1-3)GlcNAc(b1-6)GalNAc
# Procedure, shortened: as §1
# [22] = molecular target: Gal(a1-3)Gal(b1-3)[Fuc(a1-4)]GlcNAc(b1-2)Man(a1-3)[Gal(a1-3)Gal(b1-3)[Fuc(a1-4)]GlcNAc(b1-2)Man(a1-6)]Man(b1-4)GlcNAc(b1-4)GlcNAc
# Procedure, shortened: as §1
# Gal(a1-3)Gal(b1-4)Glc = molecular target: Gal(a1-3)Gal(b1-4)Glc
# Procedure, shortened: as §1
# Gal(a1-3)Gal(b1-4)GlcNAc = molecular target: Gal(a1-3)Gal(b1-4)GlcNAc
# Procedure, shortened: as §1
# [23] = molecular target: Gal(a1-3)Gal(b1-4)GlcNAc(b1-2)Man
# Procedure, shortened: as §1
# [24] = molecular target: Gal(a1-3)Gal(b1-4)GlcNAc(b1-2)Man(a1-3)[Gal(a1-3)Gal(b1-4)GlcNAc(b1-2)Man(a1-6)]Man(b1-4)GlcNAc(b1-4)GlcNAc
# Procedure, shortened: as §1
# [25] = molecular target: Gal(a1-3)Gal(b1-4)GlcNAc(b1-3)GalNAc
# Procedure, shortened: as §1
# [26] = molecular target: Gal(a1-3)Gal(b1-4)GlcNAc(b1-6)GalNAc
# Procedure, shortened: as §1
# [27] = molecular target: Gal(a1-3)Gal(b1-4)[Fuc(a1-3)]GlcNAc
# Procedure, shortened: as §1
# [28] = molecular target: Gal(a1-3)Gal(b1-4)[Fuc(a1-3)]GlcNAc(b1-2)Man(a1-3)[Gal(a1-3)Gal(b1-4)[Fuc(a1-3)]GlcNAc(b1-2)Man(a1-6)]Man(b1-4)GlcNAc(b1-4)GlcNAc
# Procedure, shortened: as §1
# Gal(a1-3)GalNAc = molecular target: Gal(a1-3)GalNAc
# Procedure, shortened: as §1
binder,measurement,setting,value
Clec18C (Homo sapiens) (protein) MLHPETSPGRGHLLAVLLALLGTAWAEVWPPQLQEQAPMAGALNRKESFLLLSLHNRLRSWVQPPAADMRRLDWSDSLAQLAQARAALCGTPTPSLASGLWRTLQVGWNMQLLPAGLVSFVEVVSLWFAEGQRYSHAAGECARNATCTHYTQLVWATSSQLGCGRHLCSAGQAAIEAFVCAYSPRGNWEVNGKTIVPYKKGAWCSLCTASVSGCFKAWDHAGGLCEVPRNPCRMSCQNHGRLNISTCHCHCPPGYTGRYCQVRCSLQCVHGRLREEECSCVCDIGYGGAQCATKVHFPFHTCDLRIDGDCFMVSSEADTYYRARMKCQRKGGVLAQIKSQKVQDILAFYLGRLETTNEVIDSDFETRNFWIGLTYKTAKDSFRWATGEHQAFTSFAFGQPDNHGFGNCVELQASAAFNWNNQRCKTRNRYICQFAQEHISRWGPGS,glycan array binding signal (z-score),Fuc(a1-3)GlcNAc,-0.581
same,glycan array binding signal (z-score),[1],-0.305
same,glycan array binding signal (z-score),[2],-0.349
same,glycan array binding signal (z-score),[3],-0.513
same,glycan array binding signal (z-score),[4],0.293
same,glycan array binding signal (z-score),[5],0.028
same,glycan array binding signal (z-score),[6],-0.546
same,glycan array binding signal (z-score),[7],-0.261
same,glycan array binding signal (z-score),[8],-0.621
same,glycan array binding signal (z-score),[9],-0.506
same,glycan array binding signal (z-score),[10],0.062
same,glycan array binding signal (z-score),[11],0.839
same,glycan array binding signal (z-score),[12],1.33
same,glycan array binding signal (z-score),[13],2.58
same,glycan array binding signal (z-score),[14],0.34
same,glycan array binding signal (z-score),[15],1.06
same,glycan array binding signal (z-score),[16],-0.121
same,glycan array binding signal (z-score),[17],0.313
same,glycan array binding signal (z-score),Fuc(a1-4)GlcNAc,-0.617
same,glycan array binding signal (z-score),Fuc(b1-3)GlcNAc,-0.605
same,glycan array binding signal (z-score),Gal(a1-2)Gal,-0.049
same,glycan array binding signal (z-score),Gal(a1-3)Gal,0.329
same,glycan array binding signal (z-score),Gal(a1-3)Gal(b1-3)GlcNAc,1.01
same,glycan array binding signal (z-score),[18],-0.431
same,glycan array binding signal (z-score),[19],0.364
same,glycan array binding signal (z-score),[20],-0.314
same,glycan array binding signal (z-score),[21],0.674
same,glycan array binding signal (z-score),[22],-0.476
same,glycan array binding signal (z-score),Gal(a1-3)Gal(b1-4)Glc,1.37
same,glycan array binding signal (z-score),Gal(a1-3)Gal(b1-4)GlcNAc,2.72
same,glycan array binding signal (z-score),[23],-0.41
same,glycan array binding signal (z-score),[24],-0.261
same,glycan array binding signal (z-score),[25],-0.365
same,glycan array binding signal (z-score),[26],-0.459
same,glycan array binding signal (z-score),[27],1.67
same,glycan array binding signal (z-score),[28],0.188
same,glycan array binding signal (z-score),Gal(a1-3)GalNAc,-0.161
